Reference: PubChem BioAssay AID2675 (National Center for Advancing Translational Sciences (NCATS), 2010)
Hit rate of the full screen: of about 280,000 compounds, about 100 (0.036%) were called active. Inconclusive means that the source gave no clear call. Such entries were picked first, then a sample of the others. Calls follow the shape of the dose curve; as a rule, active = well fitted inhibition curve with a large enough effect in the signal ratio, with a control signal flat (not every such curve was filed as active); inconclusive = small, poorly fitted or top-dose-only effect, or effect the other way, or a change in a side signal; inactive = no such curve, though single readings can be large or run the other way; the % refers to the signal ratio. Potencies of inconclusive entries are doubtful fits and often do not repeat. A note “side channel” means that the fit belongs to a control or component signal, not to the main read-out.

Target: Muscleblind-like protein 1 (Homo sapiens) (UniProt Q9NR56)
Sequence of UniProt Q9NR56 (Q9NR56 whole entry, looked up): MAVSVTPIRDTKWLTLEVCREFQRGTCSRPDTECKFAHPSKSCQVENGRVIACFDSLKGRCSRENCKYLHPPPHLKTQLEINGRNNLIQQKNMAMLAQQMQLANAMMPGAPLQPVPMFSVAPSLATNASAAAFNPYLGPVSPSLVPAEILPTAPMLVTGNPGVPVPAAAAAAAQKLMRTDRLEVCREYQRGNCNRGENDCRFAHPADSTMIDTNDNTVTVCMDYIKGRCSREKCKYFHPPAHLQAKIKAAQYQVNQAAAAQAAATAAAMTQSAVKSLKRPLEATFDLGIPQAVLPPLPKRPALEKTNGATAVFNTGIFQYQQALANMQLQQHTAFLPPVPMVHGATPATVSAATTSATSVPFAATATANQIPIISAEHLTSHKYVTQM
Experiment: qHTS Assay for Inhibitors of MBNL1-poly(CUG) RNA binding
Conditions: TR-FRET MBNL1-His/biotin-(CUG)12 binding, 665/545 ratio; activity change, negative = inhibition: at 57.5 µM (top of the series)
Procedure, shortened: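 Inhibition of protein-RNA binding appears as loss of TR-FRET between terbium anti-His antibody on MBNL1-His and streptavidin-XL665 on biotin-(CUG)12. Activity is normalized to buffer-only and uninhibited-complex controls.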
% is scaled to controls: 0 for no effect and ±100 for the full control effect; potency is read from the fitted curve at half-maximal effect; tags tell the direction and shape of the fitted curve or compound fluorescence and quenching.

Structure (SMILES) | Potency | activity change, negative = inhibition
C=CCSc1nnc2nc3[nH]c4c(C)cccc4c3nn12 | inconclusive: 3.55 µM [quencher, side channel, full curve] | 
COc1ccc(-n2c(CN3CCC(C)CC3)nc3ccc([N+](=O)[O-])cc3c2=O)c(OC)c1 | inconclusive: 14.1 µM [quencher, side channel, partial curve] | 
CCCSC1=N/C(=C\c2ccc([N+](=O)[O-])o2)C(=O)S1 |  | inactive: 25.9%
COc1ccc(/C=C2\SC(=O)N(CCNC(=O)CCS(=O)(=O)c3ccc(C)cc3)C2=O)cc1 | inconclusive: 15.8 µM [quencher, side channel, partial curve] | 
CCOC(=O)c1[nH]c2c(c1C)C(=O)CC(c1ccc(N(C)C)cc1)C2 (stereo not given) | inconclusive: 31.6 µM [quencher, side channel, single point] | 
CN(C(=O)c1cc2c(s1)-c1ccccc1S(=O)(=O)C2)c1ccccc1 | inconclusive: 11.2 µM [quencher, side channel, partial curve] | 
CCCN1CCN(C(=O)Cn2ncc3ccccc32)CC1 | inconclusive: 0.158 µM [quencher, side channel, full curve] | 
COC(=O)C(CCSC)NC(=O)c1cc2c(n(-c3ccc(C)cc3)c1=O)CCCC2=O (stereo not given) | inconclusive: 3.98 µM [fluorescent, single point] | 
O=C(Cc1ccccc1[N+](=O)[O-])NCc1ccc(Cl)cc1 |  | inactive: 16.9%
O=[N+]([O-])c1ccc2c(c1)ncn2CCc1ccccc1 | inconclusive: 25.1 µM [quencher, side channel, partial curve] | 
N#Cc1ccc(-c2ccco2)nc1SCc1ccccc1 |  | inactive: 7.67%
O=C(NC1CCCCC1)N1CCCCCC1 |  | inactive: -2.57%
Cc1nc(N=Nc2ccc(O)cc2)n[nH]1 | inconclusive: 22.4 µM [quencher, partial curve, poor fit] | 
CC(=O)c1cccc(NC(=O)N2C3CCC2CC(O)(c2cccnc2)C3)c1 (stereo not given) |  | inactive: -3.14%
CNC[C@@H](Cc1ccccc1)NC[C@@H](CC1CCCCC1)NCCCc1ccccc1 |  | inactive: 3.9%
CC(C)CN(CC(C)C)C(=O)c1cc2c(=O)n3ccccc3nc2s1 | inconclusive: 17.8 µM [quencher, side channel, partial curve] | 
CNC(=S)N/N=C/c1c2ccccc2c(Cl)c2ccccc12 | inconclusive: 14.1 µM [quencher, side channel, partial curve] | 
Cc1cccc2sc(NC(=O)CCNS(=O)(=O)c3cccc4nonc34)nc12 | inconclusive: 12.6 µM [quencher, side channel, partial curve] | 
COc1ccc(-c2ccc(-c3noc(C)n3)c(OC)n2)cc1 |  | inactive: 32.2%
O=C(CSc1ncn[nH]1)c1cc2ccccc2o1 | inconclusive: 17.8 µM [quencher, side channel, partial curve] | 

Structure (SMILES) | Potency | activity change, negative = inhibition
Nc1nc(SCC(=O)c2cccc([N+](=O)[O-])c2)n[nH]1 | inconclusive: 20 µM [quencher, side channel, single point] | 
O=C(c1ccco1)N1CCN(C2CCCC2)CC1 | inconclusive: 1 µM [quencher, side channel, single point] | 
CC1CCN(C2(O)C(=O)Nc3ccc(Br)cc32)CC1 (stereo not given) | inconclusive: 31.6 µM [quencher, side channel, single point] | 
O=C(Cc1ccc([N+](=O)[O-])cc1)Nc1nnc(C2CC2)s1 |  | inactive: -0.283%
CCn1c(SCC(=O)c2ccc3ccccc3c2)nnc1-c1ccco1 | inconclusive: 20 µM [quencher, side channel, single point] | 
CCOC(=O)C1CCCN(C/C=C/c2ccccc2[N+](=O)[O-])C1 (stereo not given) | inconclusive: 35.5 µM [quencher, side channel, single point] | 
COc1ccccc1-n1c(N)c(C(N)=O)sc1=S | inconclusive: 14.1 µM [quencher, side channel, partial curve] | 
O=C(CNC(=O)c1ccccc1)OCc1cc(=O)n2cc(Br)ccc2n1 | inconclusive: 2.24 µM [quencher, side channel, full curve] | 
CC(C)CCn1nnnc1C(c1ccccc1)N1CCN(C)CC1 (stereo not given) |  | inactive: -1.7%
N#Cc1nc(-c2ccccc2)oc1NCC1CCCO1 (stereo not given) | inconclusive: 0.1 µM [quencher, side channel, full curve, poor fit] | 
COc1ccc(-n2nc(C(=O)NCC(=O)N(C)Cc3ccccc3)c3ccccc3c2=O)cc1OC | inconclusive: 10 µM [quencher, side channel, partial curve] | 
CCNc1nc(NCC)nc(N/N=C/c2ccc([N+](=O)[O-])o2)n1 | inconclusive: 14.1 µM [quencher, side channel, partial curve] | 
O=C(Nc1ccc(O)c(-c2nc3ccccc3o2)c1)C1(c2ccc(Cl)cc2)CCCC1 | inconclusive: 0.501 µM [fluorescent, side channel, partial curve] | 
COc1ccc(NC(=O)C2=CC(c3ccco3)=NS(=O)(=O)N2C)cc1OC | inconclusive: 15.8 µM [quencher, side channel, partial curve] | 
Cc1oc2c(c(C)cc3oc(=O)c(CC(=O)NCCC(=O)O)c(C)c32)c1C | inconclusive: 28.2 µM [quencher, side channel, single point] | 
Cc1ccc(C2=N/C(=C/N3CCOCC3)C(=O)O2)cc1 | inconclusive: 20 µM [quencher, side channel, partial curve] | 
CC(C(=O)Nc1cccc([N+](=O)[O-])c1)N1CCN(C/C=C/c2ccccc2)CC1 (stereo not given) | inconclusive: 22.4 µM [quencher, side channel, partial curve] | 
O=C(Cc1ccccc1)NN1C(=O)/C(=C/c2ccccc2C(=O)O)SC1=S | inconclusive: 35.5 µM [quencher, side channel, single point] | 
Fc1ccc(Nc2ncnc3sc4c(c23)CCC4)cc1 |  | inactive: -1.65%
O=[N+]([O-])c1cc(-c2nc(-c3ccncc3)no2)cc([N+](=O)[O-])c1 | inconclusive: 1.41 µM [quencher, side channel, full curve] | 

Structure (SMILES) | Potency | activity change, negative = inhibition
O=C(Cn1cncn1)N/N=C/c1cc([N+](=O)[O-])ccc1O | inconclusive: 17.8 µM [quencher, side channel, partial curve] | 
Cc1cc(C(=O)Nc2c[nH]c(=O)[nH]c2=O)ccc1[N+](=O)[O-] | inconclusive: 0.562 µM [quencher, side channel, full curve] | 
Cc1nc(N=Nc2cc(S(=O)(=O)O)c3cc([N+](=O)[O-])cc(S(=O)(=O)O)c3c2)c(COP(=O)(O)O)c(C=O)c1O | inconclusive: 11.2 µM [quencher, side channel, partial curve] | 
Nc1nc(-c2ccc([N+](=O)[O-])cc2)cs1 | inconclusive: 8.91 µM [quencher, side channel, partial curve] | 
CCOc1ccc(NC(=O)CCC(=O)N/N=C/c2ccc([N+](=O)[O-])s2)cc1 | inconclusive: 2 µM [quencher, side channel, full curve] | 
COc1ccc(N(C(=O)c2snc(C(N)=O)c2N)C(C(=O)NC2CCCC2)c2ccco2)cc1OC (stereo not given) | inconclusive: 15.8 µM [quencher, side channel, partial curve] | 
O=C1c2ccccc2C(=O)c2c1cccc2N(CCO)CCO | inconclusive: 12.6 µM [quencher, side channel, partial curve] | 
CN1CCc2c(sc(/N=C/c3ccco3)c2C(N)=O)C1 | inconclusive: 28.2 µM [quencher, side channel, partial curve] | 
O=C(COC(=O)c1ccc2c(c1)C(=O)N(Cc1ccco1)C2=O)NCC(F)(F)F | inconclusive: 6.31 µM [quencher, side channel, partial curve] | 
Cc1ccc(C(=O)N/C(=C/c2ccc(-c3cccc([N+](=O)[O-])c3)o2)C(=O)NC(C)C)cc1 | inconclusive: 5.62 µM [quencher, side channel, full curve, poor fit] | 
O=C(NNC(=O)C1CC1c1ccccc1)Nc1ccccc1 (stereo not given) | inconclusive: 39.8 µM [fluorescent, side channel, single point] | 
Cc1[nH]nc2c1C1(C(=O)N(Cc3ccc(Cl)cc3)c3ccccc31)C(C#N)=C(N)O2 (stereo not given) | inconclusive: 6.31 µM [quencher, side channel, full curve] | 
COc1ccc(-c2ccc(/C=N/NC(=O)Cc3nnc(N)s3)o2)cc1Cl | inconclusive: 14.1 µM [quencher, side channel, partial curve] | 
Cc1cccc(NCc2ccc([N+](=O)[O-])s2)c1 | inconclusive: 25.1 µM [quencher, side channel, partial curve] | 
CCN(CC)CCCNC(=O)c1[nH]c(C)c(C(=O)NC2CCCCC2)c1C |  | inactive: 4.18%
CCOC(=O)C1CCN(C2=NC(=O)/C(=C/c3ccc(O)cc3)S2)CC1 | inconclusive: 28.2 µM [quencher, side channel, partial curve] | 
CCc1ccc(C(=O)COC(=O)CNC(=O)Cc2ccccc2)cc1 |  | inactive: -9.44%
CC1CCN(S(=O)(=O)c2ccc3c(c2)c(=O)c(C(=O)N2CCCCC2)cn3C)CC1 |  | inactive: -1.74%
COc1ccc(OC)c(NC(=O)c2cccc3c2C(=O)N(C2CCCCC2)C3)c1 |  | inactive: -1.82%
Cc1cc(/C=C2/NC(=O)NC2=O)c(C)n1-c1cccnc1 | inconclusive: 28.2 µM [quencher, side channel, partial curve] | 
